Test results from the supplement of paper PMC3334620.
Whole data set: some 33,000 sequences, median “E-score (-0.5 to 0.5)” near -0.021, cut for the highest 2% near 0.32. Some of the results follow.

Biological target: T1, Zap1 (UniProt P47043)
T1 sequence: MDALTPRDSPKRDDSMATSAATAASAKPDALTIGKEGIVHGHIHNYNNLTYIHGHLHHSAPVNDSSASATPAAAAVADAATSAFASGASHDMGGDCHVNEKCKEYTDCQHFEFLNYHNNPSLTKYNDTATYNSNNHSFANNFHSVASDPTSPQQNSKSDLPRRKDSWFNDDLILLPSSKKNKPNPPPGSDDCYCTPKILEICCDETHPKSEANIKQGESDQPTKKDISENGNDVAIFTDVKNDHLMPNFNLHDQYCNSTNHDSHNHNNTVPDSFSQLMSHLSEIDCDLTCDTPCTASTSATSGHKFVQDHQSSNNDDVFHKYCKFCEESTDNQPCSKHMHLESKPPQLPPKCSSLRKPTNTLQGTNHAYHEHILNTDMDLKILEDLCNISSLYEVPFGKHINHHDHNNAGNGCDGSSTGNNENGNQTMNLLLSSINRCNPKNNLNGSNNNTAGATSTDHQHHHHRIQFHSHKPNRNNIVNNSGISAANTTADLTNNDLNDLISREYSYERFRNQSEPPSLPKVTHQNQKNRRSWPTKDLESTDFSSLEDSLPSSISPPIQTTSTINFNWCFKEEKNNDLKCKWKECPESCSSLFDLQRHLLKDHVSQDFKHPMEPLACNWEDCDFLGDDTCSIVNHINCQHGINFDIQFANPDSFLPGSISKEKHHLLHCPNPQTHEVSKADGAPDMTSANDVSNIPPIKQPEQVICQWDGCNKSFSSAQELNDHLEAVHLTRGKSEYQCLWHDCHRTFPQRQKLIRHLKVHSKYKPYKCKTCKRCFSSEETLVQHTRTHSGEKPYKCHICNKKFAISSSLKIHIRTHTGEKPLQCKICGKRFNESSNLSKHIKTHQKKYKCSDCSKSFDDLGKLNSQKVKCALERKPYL
Experiment: PBM E-score (8-mer binding enrichment) (E-score (-0.5 to 0.5)); higher = stronger / more preferred TF binding; most listed sequences are background and not binding sites
Conditions: protein concentration: 200 nM; construct: GST-full length
Summary of the method: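 Detection of bound protein used fluorescent anti-GST, with scans normalised by masliner. The proteins were GST-tagged yeast transcription factors applied at about 100-200 nM to universal all-10-mer Agilent arrays made double-stranded by primer extension. Each ungapped eight-base word, pooled with its reverse complement, was scored with an E-score from the Universal PBM Analysis Suite.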

| Sequence | PBM E-score |
| --- | --- |
| ACGTGGAA | 0.00571 |
| CCTCTGGC | 0.0164 |
| AGGGAGAC | -0.28 |
| ATACTCCC | -0.109 |
| AAGTAGTA | -0.129 |
| ACCAAGAA | 0.233 |
| CGCGAATC | -0.027 |
| ATGTCCCC | 0.00249 |
| AAGGCTCT | -0.178 |
| CACTCACC | -0.0852 |
| AGAAGAAT | -0.0761 |
| AGTCCCCC | -0.386 |
| ATTACTTC | -0.152 |
| CCTTTGGA | 0.0536 |
| AGGATAGA | 0.0204 |
| AGATCCCC | -0.182 |
| CCTAATCA | 0.176 |
| CTTATATC | 0.119 |
| CTCTTAAA | 0.0701 |
| ATGGCATA | -0.0458 |
| AGTCTCGG | -0.0008 |
| AGCCCATG | 0.0154 |

| Sequence | PBM E-score |
| --- | --- |
| CGACTATA | -0.071 |
| CTATCCAC | -0.144 |
| ACACACGA | -0.0681 |
| AGCCCTAA | -0.00909 |
| ACTGGATC | -0.0832 |
| CGCCACTC | -0.113 |
| CAGATCAG | -0.0403 |
| ATACTGCA | -0.0688 |
| AAAGCGCC | -0.165 |
| CGTTCCTA | -0.0229 |
| AAATGAAT | -0.047 |
| AGATAATA | 0.0204 |
| AAACGTGG | -0.13 |
| AGAGAAAT | -0.15 |
| GAGGTGCA | -0.151 |
| ACCATGAT | 0.218 |
| CTAGTCAA | -0.213 |
| CGGCCAAG | -0.192 |
| GGGTAGAC | -0.0919 |
| TTGGCAAA | 0.0688 |
| CTCTTGCA | -0.161 |
| TAATGGCA | 0.0922 |

| Sequence | PBM E-score |
| --- | --- |
| ATCTCACC | -0.0161 |
| ACATCCTC | -0.0838 |
| ACCTTGAC | 0.266 |
| CGCTCGCC | -0.149 |
| CTCCGCGA | -0.0822 |
| AGTCTCCA | -0.158 |
| CTGTATTC | 0.0469 |
| GCTCAAGA | -0.173 |
| GGTGTGTA | 0.0237 |
| CCGATGAG | -0.14 |
| CCGAATCC | -0.00486 |
| CCATTGCC | 0.0848 |
| ACGCTAAT | -0.0866 |
| ATCTCAAT | 0.0751 |
| ACAGTGCT | 0.0524 |
| CAGGACGG | -0.119 |
| ATTTAAAC | 0.239 |
| AGTCACTG | -0.112 |
| GGCTGGAC | -0.214 |
| CTCCTTAA | -0.107 |
| ACGAACTC | 0.0404 |
| ATATGTCG | -0.00795 |

| Sequence | PBM E-score |
| --- | --- |
| TAACCTTA | 0.39 |
| CGTGTTCA | 0.0746 |
| GGTGGTGA | 0.23 |
| AATATACA | 0.126 |
| GGACGGTA | 0.022 |
| AGGACGAT | -0.0331 |
| CACGCGAC | -0.145 |
| AGGAACCG | 0.0672 |
| CGCGCATA | 0.00495 |
| ATCGGAAT | 0.0145 |
| ACATAAGG | 0.0989 |
| CCTCTGGA | 0.106 |
| GCCTGTCA | -0.177 |
| CCGTTCGC | -0.0498 |
| AACTGACG | -0.173 |
| CACATAAC | 0.284 |
| AGTTGAAG | -0.137 |
| CCGCAGCC | 0.0175 |
| AAGCAACC | 0.221 |
| ACACCCTA | 0.335 |
